Laboratory results as given in publication PMC9911399, “Two distinct binding modes provide the RNA-binding protein RbFox with extraordinary sequence specificity”.
Changes are numbered by the printed parent chain; changes in the protein carry UniProt numbers. Some of the results follow.

T1: RBFOX1 RRM RbFoxmut (Fox-RRM*) (Homo sapiens, UniProt Q9NWB1 109-208, R118D;E147R;N151S;E152T)
T1 sequence: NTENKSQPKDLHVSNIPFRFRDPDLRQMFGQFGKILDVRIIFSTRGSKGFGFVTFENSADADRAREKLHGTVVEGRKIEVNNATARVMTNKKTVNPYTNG

B1: CCUCCGA (DNA:RNA)
RNA: GGGAGACCGGAAUUCAGAUUGUCCCCUCCGAUUAAAUCCCGUCGUAGCCACCA
DNA 1: CAATCTGAATTCCGGTCTCCC
DNA 2: TGGTGGCTACGACGGGATT
B2: GAGGAUG (DNA:RNA)
RNA: GGGAGACCGGAAUUCAGAUUGUCCGAGGAUGUUAAAUCCCGUCGUAGCCACCA
DNA 1: CAATCTGAATTCCGGTCTCCC
DNA 2: TGGTGGCTACGACGGGATT
B3: UAUGCAU (DNA:RNA)
RNA: B1 RNA with C25U, C26A, C28G, G30A, A31U
DNA 1: CAATCTGAATTCCGGTCTCCC
DNA 2: TGGTGGCTACGACGGGATT
B4: ACAACGA (DNA:RNA)
RNA: B1 RNA with C25A, U27A, C28A
DNA 1: CAATCTGAATTCCGGTCTCCC
DNA 2: TGGTGGCTACGACGGGATT
B5: UUUACUC (DNA:RNA)
RNA: B1 RNA with C25U, C26U, C28A, G30U, A31C
DNA 1: CAATCTGAATTCCGGTCTCCC
DNA 2: TGGTGGCTACGACGGGATT
B6: CCCAGUC (DNA:RNA)
RNA: B1 RNA with U27C, C28A, C29G, G30U, A31C
DNA 1: CAATCTGAATTCCGGTCTCCC
DNA 2: TGGTGGCTACGACGGGATT
B7: UAGGUUG (DNA:RNA)
RNA: B2 RNA with G25U, A29U
DNA 1: CAATCTGAATTCCGGTCTCCC
DNA 2: TGGTGGCTACGACGGGATT
B8: UCCGCGU (DNA:RNA)
RNA: B1 RNA with C25U, U27C, C28G, A31U
DNA 1: CAATCTGAATTCCGGTCTCCC
DNA 2: TGGTGGCTACGACGGGATT
B9: ACCUGCU (DNA:RNA)
RNA: B1 RNA with C25A, U27C, C28U, C29G, G30C, A31U
DNA 1: CAATCTGAATTCCGGTCTCCC
DNA 2: TGGTGGCTACGACGGGATT
B10: CCGGUAC (DNA:RNA)
RNA: B1 RNA with U27G, C28G, C29U, G30A, A31C
DNA 1: CAATCTGAATTCCGGTCTCCC
DNA 2: TGGTGGCTACGACGGGATT
B11: UAGCCAG (DNA:RNA)
RNA: B2 RNA with G25U, G28C, A29C, U30A
DNA 1: CAATCTGAATTCCGGTCTCCC
DNA 2: TGGTGGCTACGACGGGATT
B12: AUUAGAC (DNA:RNA)
RNA: B1 RNA with C25A, C26U, C28A, C29G, G30A, A31C
DNA 1: CAATCTGAATTCCGGTCTCCC
DNA 2: TGGTGGCTACGACGGGATT
B13: CAAUUGG (DNA:RNA)
RNA: B1 RNA with C26A, U27A, C28U, C29U, A31G
DNA 1: CAATCTGAATTCCGGTCTCCC
DNA 2: TGGTGGCTACGACGGGATT
B14: GAUACUU (DNA:RNA)
RNA: B2 RNA with G27U, G28A, A29C, G31U
DNA 1: CAATCTGAATTCCGGTCTCCC
DNA 2: TGGTGGCTACGACGGGATT
B15: UGAAUGA (DNA:RNA)
RNA: B1 RNA with C25U, C26G, U27A, C28A, C29U
DNA 1: CAATCTGAATTCCGGTCTCCC
DNA 2: TGGTGGCTACGACGGGATT
B16: UGCGAGA (DNA:RNA)
RNA: B1 RNA with C25U, C26G, U27C, C28G, C29A
DNA 1: CAATCTGAATTCCGGTCTCCC
DNA 2: TGGTGGCTACGACGGGATT
B17: CCACUAU (DNA:RNA)
RNA: B1 RNA with U27A, C29U, G30A, A31U
DNA 1: CAATCTGAATTCCGGTCTCCC
DNA 2: TGGTGGCTACGACGGGATT
B18: UGGGAUC (DNA:RNA)
RNA: B2 RNA with G25U, A26G, G31C
DNA 1: CAATCTGAATTCCGGTCTCCC
DNA 2: TGGTGGCTACGACGGGATT
B19: GCUCGGG (DNA:RNA)
RNA: B1 RNA with C25G, C29G, A31G
DNA 1: CAATCTGAATTCCGGTCTCCC
DNA 2: TGGTGGCTACGACGGGATT
B20: ACGCUCG (DNA:RNA)
RNA: B1 RNA with C25A, U27G, C29U, G30C, A31G
DNA 1: CAATCTGAATTCCGGTCTCCC
DNA 2: TGGTGGCTACGACGGGATT

What follows are binders tested against T1, RBFOX1 RRM RbFoxmut (Fox-RRM*) (assay: EMSA; HiTS-Eq, 1 nM pool, 10 min; buffer printed only for the single-RNA assays: 10 mM Tris pH 7.5, 150 mM NaCl, 3.4 mM EDTA, 0.001% NP-40, 30 C). Conditions: tags: His6 N-terminal (pET28a); label: 5' 32P.
Outline: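 These values rest on relative association constants, computed from read-count changes of each RNA species versus the control reaction and normalised to the cognate motif. Reads came from free RNA recovered by 8% native PAGE after purified RbFox RRM (wild type or mutant) at increasing concentrations was equilibrated for 10 min in 50 µL with 1 nM of a 5′-radiolabelled pool with 7 randomized nucleotides and DNA-annealed flanks.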
B1 was tested, and the binding signal was 0.0512 KA relative to UGCAUGU. In the case of B2, the binding signal is reported as 0.23 KA relative to UGCAUGU. In the case of B3, the binding signal is reported as 0.0878 KA relative to UGCAUGU. With B4 the binding signal was 0.0863 KA relative to UGCAUGU. B5 was tested, and the binding signal was 0.0584 KA relative to UGCAUGU. With B6 the binding signal was 0.0859 KA relative to UGCAUGU. For B7, the binding signal was 0.35 KA relative to UGCAUGU. In the case of B8, the binding signal is reported as 0.0928 KA relative to UGCAUGU. With B9 the binding signal was 0.072 KA relative to UGCAUGU. With B10 the binding signal was 0.0716 KA relative to UGCAUGU. In the case of B11, the binding signal is reported as 0.0957 KA relative to UGCAUGU. For B12, the binding signal was 0.0913 KA relative to UGCAUGU. For B13, the binding signal was 0.0714 KA relative to UGCAUGU. For B14, the binding signal was 0.0808 KA relative to UGCAUGU. B15 was tested, and the binding signal was 0.46 KA relative to UGCAUGU. For B16, the binding signal was 0.0936 KA relative to UGCAUGU. For B17, the binding signal was 0.09 KA relative to UGCAUGU. For B18, the binding signal was 0.357 KA relative to UGCAUGU. B19 was tested, and the binding signal was 0.0939 KA relative to UGCAUGU. With B20 the binding signal was 0.128 KA relative to UGCAUGU.
